Results as given in PubChem BioAssay AID1347165 (National Center for Advancing Translational Sciences (NCATS), 2019).
Hit rate of the full screen: of about 220,000 compounds, about 5,700 (2.6%) were called active. Inconclusive results, whose numbers are uncertain, are shown with a selection of clear calls. Calls follow the shape of the dose curve; as a rule, active = well fitted inhibition curve with a large enough effect; inconclusive = small, poorly fitted or top-dose-only effect; inactive = no such curve, though single readings can be large or run the other way. Potencies beside an inconclusive call are fits to weak or partial responses and may not hold up.
Also: nearly all actives have a fitted effect of over 70% in size.
Potency is read from the fitted curve at half-maximal effect; tags tell the direction and shape of the fitted curve.

What follows are compounds tested against Lysine-specific demethylase 5B (Homo sapiens) (UniProt Q9UGL1) (assay: Primary screen for KDM5B Histone Demethylases FDH-coupled qHTS). Conditions: FDH-coupled NADH fluorescence (FDH is formaldehyde dehydrogenase); series mostly up to 57.7 µM.
Chain of UniProt Q9UGL1 (Q9UGL1 whole entry, looked up): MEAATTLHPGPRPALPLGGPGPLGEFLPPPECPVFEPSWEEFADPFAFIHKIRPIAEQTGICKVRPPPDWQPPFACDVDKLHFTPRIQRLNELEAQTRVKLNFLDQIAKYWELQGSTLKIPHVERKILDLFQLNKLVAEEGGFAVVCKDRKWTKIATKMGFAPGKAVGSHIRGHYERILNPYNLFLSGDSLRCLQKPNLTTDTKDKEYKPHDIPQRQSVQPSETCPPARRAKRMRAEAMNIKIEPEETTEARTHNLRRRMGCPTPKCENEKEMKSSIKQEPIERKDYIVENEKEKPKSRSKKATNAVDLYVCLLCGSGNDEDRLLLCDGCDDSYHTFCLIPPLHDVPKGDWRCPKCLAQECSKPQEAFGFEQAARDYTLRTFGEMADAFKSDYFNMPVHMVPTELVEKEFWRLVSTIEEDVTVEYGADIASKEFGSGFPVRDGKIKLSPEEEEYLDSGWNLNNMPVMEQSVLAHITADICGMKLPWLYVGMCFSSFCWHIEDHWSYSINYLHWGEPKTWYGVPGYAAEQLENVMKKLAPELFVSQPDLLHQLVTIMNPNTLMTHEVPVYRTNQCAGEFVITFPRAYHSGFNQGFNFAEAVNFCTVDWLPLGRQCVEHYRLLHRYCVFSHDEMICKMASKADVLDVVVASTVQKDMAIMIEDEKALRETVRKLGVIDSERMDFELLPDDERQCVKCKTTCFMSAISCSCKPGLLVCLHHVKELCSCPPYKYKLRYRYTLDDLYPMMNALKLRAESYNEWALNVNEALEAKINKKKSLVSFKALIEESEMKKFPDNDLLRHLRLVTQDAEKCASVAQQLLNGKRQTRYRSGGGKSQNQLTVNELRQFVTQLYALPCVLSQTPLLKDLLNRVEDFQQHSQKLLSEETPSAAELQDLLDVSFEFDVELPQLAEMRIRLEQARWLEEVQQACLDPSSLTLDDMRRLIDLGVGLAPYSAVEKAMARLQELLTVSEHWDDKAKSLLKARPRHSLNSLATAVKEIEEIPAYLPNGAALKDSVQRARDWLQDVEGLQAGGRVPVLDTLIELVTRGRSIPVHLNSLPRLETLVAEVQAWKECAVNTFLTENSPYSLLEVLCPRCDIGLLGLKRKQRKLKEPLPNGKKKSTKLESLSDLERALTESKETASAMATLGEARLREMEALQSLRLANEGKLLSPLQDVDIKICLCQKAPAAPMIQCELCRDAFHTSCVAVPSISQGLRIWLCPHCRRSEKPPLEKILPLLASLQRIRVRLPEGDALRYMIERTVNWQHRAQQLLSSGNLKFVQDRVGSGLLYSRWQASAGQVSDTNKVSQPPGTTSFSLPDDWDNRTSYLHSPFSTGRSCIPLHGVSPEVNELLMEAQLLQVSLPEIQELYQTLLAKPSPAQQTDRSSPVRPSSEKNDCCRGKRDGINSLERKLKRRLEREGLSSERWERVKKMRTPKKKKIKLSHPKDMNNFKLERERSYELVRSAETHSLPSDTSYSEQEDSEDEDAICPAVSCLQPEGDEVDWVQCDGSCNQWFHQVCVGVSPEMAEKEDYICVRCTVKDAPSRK
Procedure, shortened: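 qHTS format, multiple compound concentrations. Buffer 50 mM HEPES pH 7.5/0.01% Tween-20; 200 nM KDM5BΔAP final; 10 min compound preincubation; substrate-mix levels 12.5 µM peptide, 25 µM α-KG, 0.25 mM NAD⁺; 30 min RT; ΔRFU.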
For `O=C(CN1CCCCCC1)Nc1nc(-c2ccccc2)cc(-c2ccccc2)n1`, the Potency was inconclusive: 15.8 µM [inhibitor, partial curve, poor fit]. For `O=c1ccc(N2CCC(NS(=O)(=O)c3ccccc3Cl)CC2)nn1CC1CC1`, the Potency was inconclusive: 25.1 µM [inhibitor, single point]. With `CC(=O)N1CCCN(c2ncnc3c2CN(C2CCCNC2)C(=O)CN3C)CC1` (configuration not stated) the Potency was active: 50.1 µM. With `N#Cc1cccc(CN2CCCCCNC(=O)[C@@H]3CCC[C@@H]32)c1` the Potency was inconclusive: 20 µM [inhibitor, partial curve]. In the case of `COc1ccc(-c2nc(COC(=O)C3(O)CCCCC3)cs2)cc1`, the Potency is reported as inconclusive: 28.2 µM [inhibitor, single point]. In the case of `COc1ccc(C)c2sc(N3CCN(C(=O)c4ccco4)CC3)nc12`, the Potency is reported as inconclusive: 15.8 µM [inhibitor, partial curve, poor fit]. With `Cc1ccc(CNC(=O)Cn2c3ncccc3c(=O)n2-c2ccc(C)cc2)cc1` the Potency was inconclusive: 31.6 µM [inhibitor, partial curve, poor fit]. `COc1ccc(C(=O)NC2CCCCC2)cc1` was tested, and the Potency was “inactive”. `O=C(c1ccc2c(c1)OCO2)N1CCCC2(C1)Nc1cccnc1NC2=NC1CCCC1` (configuration not stated) was tested, and the Potency was inconclusive: 28.2 µM [inhibitor, partial curve, poor fit]. For `Cc1cccc2c1nc1n2[C@@H](CNC(=O)c2ccc3c(c2)OCO3)COC1`, the Potency was “inactive”. For `C=CCNC(=S)N/N=C1/C=C(C)CC(C)(C)C1`, the Potency was “inactive”. `COc1ccccc1CNC(=O)c1ccc2c(c1)N(Cc1c(F)cccc1Cl)C(=O)CS2` was tested, and the Potency was inconclusive: 1 µM [inhibitor, partial curve, poor fit]. In the case of `Cc1cc(C)cc(NC(=O)c2cc(S(=O)(=O)N3CCc4ccccc43)cn2C)c1`, the Potency is reported as inconclusive: 28.2 µM [inhibitor, partial curve, poor fit]. `COc1ccc(-c2csc3ncnc(Nc4cc(OC)cc(OC)c4)c23)cc1` was tested, and the Potency was inconclusive: 25.1 µM [inhibitor, partial curve, poor fit]. In the case of `COc1ccccc1CC(=O)Nc1ccc2nc(Nc3cccc(Cl)c3)cc(C)c2c1`, the Potency is reported as inconclusive: 31.6 µM [inhibitor, partial curve, poor fit]. `CC[C@H]1CN(C(=O)c2ccc(F)cc2)CC[C@H]1CC(=O)NCCOC` was tested, and the Potency was “inactive”. With `CCc1ccc2oc(-c3ccc(N)cc3O)nc2c1` the Potency was inconclusive: 10 µM [inhibitor, partial curve, poor fit]. In the case of `CCCn1nc(C(=O)Nc2cccc(S(=O)(=O)N(C)C)c2)c2ccccc2c1=O`, the Potency is reported as “inactive”. In the case of `COc1ccc(OC)c(-c2cc3ccc(OS(C)(=O)=O)cc3oc2=O)c1`, the Potency is reported as inconclusive: 35.5 µM [inhibitor, partial curve, poor fit]. `COc1ccc(-c2noc(-c3cccn3CC(=O)NCc3ccc(F)cc3)n2)cc1F` was tested, and the Potency was “inactive”. For `Cc1oc(-c2nc(C#N)c(NCCN(C)C)o2)cc1S(=O)(=O)N1CCCCC1`, the Potency was inconclusive: 22.4 µM [inhibitor, partial curve, poor fit]. `COc1ccc(-c2nc(C#N)c(N3CCN(C(=O)c4cccs4)CC3)o2)cc1OC` was tested, and the Potency was inconclusive: 39.8 µM [inhibitor, partial curve, poor fit]. In the case of `Cc1cc(=O)oc2cc(OCC(=O)N3CCC(O)CC3)c(Cl)cc12`, the Potency is reported as inconclusive: 25.1 µM [inhibitor, single point]. In the case of `CC(C)(C)c1nc(C(=O)N2CCCC2)n2ccncc12`, the Potency is reported as active: 100 µM. With `O=C1NCc2ccccc2CC12CCN(Cc1ccc(F)cc1O)CC2` the Potency was “inactive”. In the case of `O=C(CCCc1c[nH]c2ccccc12)Nc1ccc2ccccc2c1`, the Potency is reported as “inactive”. With `CS(=O)(=O)c1ccc(CN2CCCC(Cc3nc4ccccc4[nH]3)C2)cc1` (configuration not stated) the Potency was “inactive”. With `Cc1[nH]n(C(N)=S)c(=O)c1N=Nc1cccc(Cl)c1` the Potency was inconclusive: 28.2 µM [inhibitor, single point]. In the case of `O[C@@H]1C[C@@H](c2nc(-c3cnccn3)no2)N(Cc2ccc(-c3ccccn3)cc2)C1`, the Potency is reported as inconclusive: 28.2 µM [inhibitor, single point]. In the case of `CC(C)(C)CC(=O)N1CCN2C(=O)c3cc(-c4ccc5c(c4)OCO5)ccc3NC(=O)[C@H]2C1`, the Potency is reported as inconclusive: 25.1 µM [inhibitor, single point]. `CCN1c2cc(C(=O)NCc3ccc(C)c(C)c3)ccc2C(=O)N2CCCCCC21` (configuration not stated) was tested, and the Potency was inconclusive: 28.2 µM [inhibitor, partial curve, poor fit]. `O=C(NCc1cccc(Cl)c1)C(=O)Nc1cccc2[nH]ccc12` was tested, and the Potency was “inactive”. In the case of `CCOc1cc(CN2CCCCCC2c2cccc(F)c2)ccc1OCC(N)=O` (configuration not stated), the Potency is reported as “inactive”. With `COc1ccccc1NC(=O)C1=C(C)Nc2ncnn2C1c1cccn1C` (configuration not stated) the Potency was inconclusive: 2.82 µM [inhibitor, full curve, poor fit]. `O=C(NCCN1CCOCC1)C1c2ccccc2CC(=O)N1Cc1ccccc1` (configuration not stated) was tested, and the Potency was “inactive”. For `CC(Oc1ccc(F)cc1)C(=O)Nc1ccc2nsnc2c1` (configuration not stated), the Potency was inconclusive: 39.8 µM [inhibitor, single point]. For `COc1ccc(-c2n[nH]c3c2CC(=O)N(Cc2ccccc2)C3)cc1OC`, the Potency was “inactive”. `CCC(C)(C)C(=O)N1CCC(C(=O)NC2CCCCCC2)CC1` was tested, and the Potency was “inactive”. With `CC(=O)c1ccc(N2CCN(C(=O)Nc3ccc(C(C)C)cc3)CC2)cc1` the Potency was inconclusive: 14.1 µM [inhibitor, partial curve, poor fit]. `CN1c2cc(C(=O)Nc3ccc(Cl)c(F)c3)ccc2C(=O)N2CCCCC21` (configuration not stated) was tested, and the Potency was inconclusive: 20 µM [inhibitor, partial curve, poor fit]. `NC(=O)Cn1ccc2cc(OCC3CCN(c4cnccn4)CC3)cnc21` was tested, and the Potency was inconclusive: 35.5 µM [inhibitor, single point]. In the case of `O=C(NC1CC1)c1cn(-c2ccccc2)nc1-c1ccccc1`, the Potency is reported as “inactive”. `O=C(NCc1cccnc1)c1ccccc1Nc1ccccc1` was tested, and the Potency was “inactive”. In the case of `O=C(NC1CCCCC1)c1cc(-n2cnnc2)ccc1Cl`, the Potency is reported as “inactive”. `COc1ccc(NS(=O)(=O)c2ccc3[nH]c4c(c3c2)CCCCC4)cc1` was tested, and the Potency was inconclusive: 28.2 µM [inhibitor, single point]. `CC(C)Cc1ccc(C(C)NC(=O)c2ccc(CS(C)(=O)=O)cc2)cc1` (configuration not stated) was tested, and the Potency was “inactive”. In the case of `Cc1ccc(C(=O)N2CCCC(n3cc(-c4nc(C(C)C)no4)nn3)C2)cc1C` (configuration not stated), the Potency is reported as “inactive”. For `CCCc1noc(-c2cccn3c(CNC(=O)c4cccnc4)nnc23)n1`, the Potency was inconclusive: 22.4 µM [inhibitor, partial curve, poor fit]. `COc1ccc(-c2ccc3ncc(Nc4ccccc4C)n3n2)cn1` was tested, and the Potency was “inactive”. In the case of `CCOC(=O)c1ccc(NC(=O)Cn2c(N3CCN(c4ccccc4)CC3)nc(C)cc2=O)cc1`, the Potency is reported as inconclusive: 25.1 µM [inhibitor, single point]. For `Cc1cccc(C(=O)N2CCc3cc(CNS(=O)(=O)c4ccc(F)c(Cl)c4)ccc32)c1`, the Potency was “inactive”. `CC(C)(C)CC(=O)C(C#N)C(=O)NCc1ccccc1` (configuration not stated) was tested, and the Potency was “inactive”. In the case of `Cc1nc(CCNc2nccc(-c3cccnc3)n2)nc2c1CCCC2`, the Potency is reported as active: 28.2 µM. In the case of `CC1CC1CNC(=O)c1nccnc1N` (configuration not stated), the Potency is reported as inconclusive: 28.2 µM [inhibitor, partial curve, poor fit]. In the case of `CCc1ccccc1NC(=O)Cn1ccn(Cc2ccccc2)c(=O)c1=O`, the Potency is reported as inconclusive: 31.6 µM [inhibitor, single point]. In the case of `CCCc1nc2sc3c(NCCN)ncnc3c2c2c1CCC2`, the Potency is reported as inconclusive: 39.8 µM [inhibitor, single point]. For `O=C1CC2CCN(CC3CCCCC3)CC2CCN1` (configuration not stated), the Potency was inconclusive: 112 µM [inhibitor, partial curve, poor fit]. For `O=C(NCc1ccc(F)cc1)N1CCC(Oc2ncccc2C(=O)N2CCCCC2)C1` (configuration not stated), the Potency was “inactive”. In the case of `FC(F)(F)c1cccc(NC(=S)NCCc2ccncc2)c1`, the Potency is reported as “inactive”. `COc1ccc2c(c1)OCC(C(=O)NCc1cc3cc(OC)ccc3[nH]1)C2` (configuration not stated) was tested, and the Potency was active: 25.1 µM. `O=C(Nc1ccc(F)c(C(F)(F)F)c1)c1ccccc1-c1ccccc1` was tested, and the Potency was inconclusive: 20 µM [inhibitor, partial curve, poor fit]. For `COCCN1CCCCCC(O)c2cc(C(=O)Nc3cc(C)ccc3OC)ccc21` (configuration not stated), the Potency was inconclusive: 25.1 µM [inhibitor, partial curve, poor fit]. In the case of `O=C(N/N=C/c1cccc(O)c1)C1CC1`, the Potency is reported as “inactive”. `COC(=O)[C@@H]1Cc2ncn(Cc3ccc(OC)cc3)c2CN1Cc1ccc(F)cc1` was tested, and the Potency was inconclusive: 39.8 µM [inhibitor, single point]. With `O=C(Cn1nc(-c2ccc(F)cc2)ccc1=O)NCc1cccnc1` the Potency was “inactive”. For `O=C1CCCC2=C1C(c1ccc(F)cc1)C=C1c3cc4c(cc3CCN12)OCCCO4` (configuration not stated), the Potency was inconclusive: 39.8 µM [inhibitor, single point]. For `CSc1ccc(CCNC(=O)c2cc3cc(S(=O)(=O)N4CCCCC4)ccc3n2C)cc1`, the Potency was inconclusive: 28.2 µM [inhibitor, partial curve, poor fit]. In the case of `Cc1ccc(/C(O)=C2\C(=O)C(=O)N(CCCO)C2c2ccc(Cl)cc2)cc1` (configuration not stated), the Potency is reported as “inactive”. In the case of `c1cc2c(cc1-c1csc(NC3CC3)n1)OCCCO2`, the Potency is reported as “inactive”. For `Cc1cc(CNC(=O)CC2C(=O)NCCN2Cc2ccc(-c3ccccc3)cc2)nn1C` (configuration not stated), the Potency was inconclusive: 22.4 µM [inhibitor, single point]. With `CCCOC(=O)c1cc(-c2ccccc2)nc2ccccc12` the Potency was “inactive”. In the case of `O=C(Nc1cccc(Cl)c1)C1CCCN(c2ncnc3c2nc2n3CCCCC2)C1` (configuration not stated), the Potency is reported as inconclusive: 28.2 µM [inhibitor, partial curve, poor fit].
